{
  "source": "patent US20050215634A1",
  "about": "(priority 2003, published 2005)",
  "tested_on": "Streptococcus pyogenes T18P",
  "assay_type": "cell-based",
  "conditions": "S. pyogenes",
  "note": "Like-named read-outs stand apart in the source and are kept apart here. Marks after values point to notes of the source that are not given here.",
  "data": [
    {"smiles": "CCCCCCCCCCCC(=O)OCC(O)CO", "note": "(stereo not shown) [GML, glycerol monolaurate]", "values": [
      {"measurement": "Average colony forming units from two wells", "setting": "GML 10 μg/ml, ratio 100:1", "value": "<10^b colony forming units"},
      {"measurement": "Average colony forming units from two wells", "setting": "GML 10 μg/ml, ratio 1000:1", "value": "<10", "unit": "colony forming units"},
      {"measurement": "Average colony forming units from two wells", "setting": "GML 20 μg/ml, ratio 100:1", "value": "<10", "unit": "colony forming units"},
      {"measurement": "Average colony forming units from two wells", "setting": "GML 20 μg/ml, ratio 1000:1", "value": "<10", "unit": "colony forming units"}
    ]}
  ]
}
